Measurements reported in PubChem BioAssay (NCI).
Values joined by “and” are separate entries in the source; they are usually repeats but may differ in a detail not shown here. Equal values may be shown once.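 Dose response: 5 concentrations. Exposure: 48 h. Format: 96-well plates. Endpoint: linear interpolation; highest concentration if not reached. GI50 is the concentration that inhibits growth by half. At the TGI there is no net growth.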 Peptide text beside a SMILES is read from it. * marks the point of attachment. Pentanoyl = CCCCC(=O)*; Boc = CC(C)(C)OC(=O)*

System: NCI-H322M lung
Experiment: inhibition of tumour cell growth, NCI panel, 48 h

SMILES | TGI | GI50 [µM]
O=C(NNc1ccnc2cc(Cl)ccc12)/C(=C\c1ccccc1Cl)NC(=O)c1ccccc1 | > 100 µM | –
O=C(O)CCSCc1ccc(I)cc1 | > 100 µM | –
CCCCC(=O)Oc1ccc(CC(NC(=O)OC(C)(C)C)C(=O)NC(C)C(=O)NC(Cc2ccccc2)C(=O)NCC(N)=O)cc1 (stereo unspecified) (Boc-Y(Pentanoyl)AFG-NH2; configuration not given here) | 42.6 µM | –
CC(C)OC(=O)C1=C(O)c2ccccc2S(=O)(=O)N1 | > 100 µM | –
NCCCCN(CCCN)C(=O)c1ccccc1 | > 100 µM | –
CC1(C)OC(C[C@]2(C#N)C[C@H](CCl)OC(C)(C)O2)C[C@@H](C[C@]2(C#N)C[C@H](CCl)OC(C)(C)O2)O1 (stereo partly specified) | > 100 µM | –
CCSC1(SCC)CC(Cc2ccc(OC)cc2)N(C=NC(C)(C)C)C1 (stereo unspecified) | > 100 µM | –
CC(=O)Nc1ccc(CNc2cc(=O)n(C)c(=O)[nH]2)cc1 | > 100 µM | –
Cc1cc(=O)[nH]o1 | > 100 µM | –
CC1CCN(CCCCCOc2ccc3oc4cc(Cl)ccc4c(=O)c3c2)CC1 | 13.9 µM | 7.19
Cn1c(O)c(C(/C=C/c2ccccc2)=NCCN=C(/C=C/c2ccccc2)c2c(O)n(C)c(=O)n(C)c2=O)c(=O)n(C)c1=O | > 50 µM | 16.5
CN(C)c1ncnc2c1nnn2C1OC(CO)C(O)C1O (stereo unspecified) | > 100 µM | 1.11
CO/N=C(/C(=O)N(C(=O)/C(=N/OC)c1csc(NC(c2ccccc2)(c2ccccc2)c2ccccc2)n1)n1cnn(CC(=O)OC(C)(C)C)c1=O)c1csc(NC(c2ccccc2)(c2ccccc2)c2ccccc2)n1 | > 10 µM | –
Cc1c(-c2nnc(-c3ccc(Cl)cc3)o2)c(=O)n(-c2ccccc2)n1C | > 100 µM | –
Oc1ccc(O)c(-c2cc(-c3ccccc3)nn2-c2ccccc2)c1 | 38.1 µM | 13.1
COc1c(NC(C)=O)cc(C)cc1NC(C)=O | > 100 µM | –
Cc1ccc(S(=O)(=O)N/N=c2\c(C)c(C3=NS(=O)(=O)c4cc(S(N)(=O)=O)c(Cl)cc4N3)oc3c(Cl)cc(Cl)cc23)cc1 | > 100 µM | –
C=CC[P+](c1ccccc1)(c1ccccc1)c1ccccc1 | > 100 µM | 24.7
N#Cc1nc(COCc2ccccc2)oc1N | > 100 µM | –
CCC1(CCSC(=N)N)C(=O)NC(=O)NC1=O | > 100 µM | –
Cc1ccc(Nc2n[nH]c(=S)s2)cc1 | > 100 µM | –
O=C1Nc2ccccc2S/C1=C\c1ccccc1C(F)(F)F | > 100 µM | –
O=C1C(Cl)=C(N2C(=O)CCCC2=O)C(=O)c2ccccc21 | > 100 µM | –
Cc1ccc([N+](=O)[O-])cc1NC(=O)C(=O)C(C(=O)c1ccccc1F)C1OC(=O)c2ccccc21 (stereo unspecified) | > 100 µM | –
Oc1c(CN2CCCC2)cc(COCc2ccc(Br)cc2)c2cccnc12 | 4.81 µM | 0.4

SMILES | TGI | GI50 [µM]
C/C(=N\N=C(\[Se])N1CCN(c2ccccn2)CC1)c1ccccn1 | 16.4 µM | 0.0057
CSC1=NC(C(N)=O)C(N)N1C (stereo unspecified) | > 100 µM | –
COc1cc(-c2cc(=O)c3c(O)c(OC)c(OC)c(OC)c3o2)ccc1O | > 100 µM | –
O=C(c1ccc2ccccc2c1)N(Cc1cccnc1)C(=S)N(Cc1cccnc1)C(=O)c1ccc2ccccc2c1 | > 100 µM | –
CCN(CC)CCCNc1nc(=O)[nH]c(C)c1C(=O)Nc1c2ccccc2nc2ccccc12 | 81.4 µM | –
CCOC(=O)C1=C(C)NC2SC(=O)/C(=C\c3ccccc3O)N2C1c1ccccc1 (stereo unspecified) | 38.9 µM | 15.4
O=C(CN1CCN(c2ccc(Cl)cc2)CC1)N1CCN(c2nnc(-c3ccc(Cl)cc3)c(-c3ccc(Cl)cc3)n2)CC1 | > 100 µM | > 100
O=c1oc2ccccc2c(O)c1C1c2c(c3ccccc3oc2=O)Oc2c1c(=O)oc1ccccc21 | > 100 µM | –
COC(=O)Nc1nc2ccc(S(=O)(=O)n3nnc4ccccc43)cc2[nH]1 | > 100 µM | –
CCOC(=O)C1=C(O)CSC1=Nc1ccccc1 | > 100 µM | –
CC(=O)OC[C@@H]1[C@H]2CC[C@]3(C)[C@@H](OC(C)=O)CC[C@H]3[C@@H]2CC[C@H]1C1(C)SCCS1 | > 25 µM | –
O=C(CF)N(O)c1ccc(/C=C/c2ccccc2)cc1 | > 100 µM | 6.38
O=c1c2ccccc2n2n1CC(O)C2 (stereo unspecified) | > 100 µM | –
O=C(CCl)NC(Cc1ccc(F)cc1)C(=O)O (stereo unspecified) | > 100 µM | –
CCCCOC(=O)NC(Nc1ccc(S(=O)(=O)Nc2ccc(OC)nn2)cc1)(C(F)(F)F)C(F)(F)F | > 100 µM | –
CCC1CN2CCC1CC2 (stereo unspecified) | > 100 µM | –
CCOC(=O)[C@H](O)[C@@H](O)C(=O)NCc1ccc(C(=O)c2ccccc2)cc1 | > 100 µM | –
O=C(O)c1cc2cc(c1)N=Cc1ccccc1OCc1cccc(n1)COc1ccccc1C=N2 | > 25 µM | –
COc1ccc(-c2nn(-c3cccc(NC(=O)c4ccc5c(c4)OCCO5)c3)cc2-c2ccncc2)cc1Cl | 59 µM | 5.29
Cc1ccc(C)c(NC(=O)NCc2ccc(Cl)cc2)c1 | > 100 µM | –
Cc1ccc2nc(-c3ccc(-n4c(C)nc(=O)c(-c5ccc(F)cc5)c4C)cc3)sc2c1 | 32.4 µM | –
Cc1cccc2c(N)c3cccc(C(=O)NCC[N+](C)(C)Cc4sccc4[N+](=O)[O-])c3nc12 | 92.6 µM | –
C=CCC(CC=O)(C(=O)OCC)C(=O)OCC | > 100 µM | –
O=c1cc(N2CCNCC2)oc2c(-c3ccccc3)cccc12 | > 100 µM | 24.8
O1C2C1C1OC1C1OC1C1OC21 (stereo unspecified) | > 100 µM | –

SMILES | TGI | GI50 [µM]
C[C@@H]1CC[C@@H]2[C@@H]1[C@H](OC(=O)/C=C/c1ccccc1)[C@]1(C3CCCCC3)C[C@@H](NC(=O)CO)[C@@]2(C)O1 | 29.5 µM | 15.7
CN(Cc1cnc2nc(N)nc(N)c2n1)c1ccc(C(=O)NCS(=O)(=O)O)cc1 | > 100 µM | –
CN(C)c1ccc(/C=C(\C#N)c2nc3ccccc3n2C)cc1 | > 100 µM | 7.82
O=C(O)C1=C(C(=O)O)N(c2ccncc2)C(c2ccco2)=CC1c1ccccc1[N+](=O)[O-] (stereo unspecified) | 30.9 µM | –
O=C1CCCC/C1=C1\C(=O)Nc2cc(F)ccc21 | > 100 µM | –
C=CCn1c(C23CC4CC(CC(C4)C2)C3)n[nH]c1=S | > 100 µM | –
O=C(c1ccccc1)c1ccc(OCCOc2ccc(Nc3ccccc3)cc2)cc1 | > 100 µM | –
CC(=O)O[C@H]1CC[C@@]2(C)C(=CC[C@@H]3[C@@H]2CC[C@]2(C)Nc4c(cnn4S(C)(=O)=O)C[C@@H]32)C1 | > 100 µM | –
O=[N+]([O-])c1ccc2c(N3CCC(CCCC4CCN(c5ncnc6cc([N+](=O)[O-])ccc56)CC4)CC3)ncnc2c1 | > 100 µM | > 100
O=[As](O)(O)c1ccc(N=Nc2ccc([As](=O)(O)O)cc2)cc1 | > 100 µM | –
O=C1c2ccccc2-c2c1c(-c1ccc([N+](=O)[O-])cc1)nc1ccc3ccccc3c21 | > 100 µM | –
O=C(O)c1ccccc1CC1Cc2ccc3c(c2C1=O)CCC3 (stereo unspecified) | > 100 µM | –
CC(Oc1ccc(OCC2CCCCC2)cc1)C(N)=O (stereo unspecified) | > 100 µM | –
Cc1nc2ccccc2c(=O)n1NC(=O)c1ccc([N+](=O)[O-])cc1 | > 100 µM | –
C/C(=N\Oc1cc(Cl)ncn1)c1ccccn1 | > 100 µM | –
CC/C=C\C/C=C\C[C@H](O)C/C=C1/C(=O)C=C[C@@H]1C/C=C\CCCC(=O)O | 21.1 µM | 7.84
Cc1cnc(-c2c[nH]c3ccccc23)nc1-c1c[nH]c2ccccc12 | 25.3 µM | –
COc1cc2nccc(Oc3ccc(NC(=O)C4(C(=O)Nc5ccc(F)cc5)CC4)cc3)c2cc1Oc1ccc(N)cn1 | > 100 µM | 3.58
CN1CCN(Cc2ccc(NC(=O)c3cncc(C#Cc4cncc5ncccc45)c3)cc2C(F)(F)F)CC1 | 14.3 µM | 3.32
O=C1c2ccccc2C(=O)c2c1ccc1nc3c(nc21)-c1c2ccccc2cc2cccc-3c12 | > 100 µM | –
C/C(=C\C1=C(Cl)C(=O)c2ccccc2C1=O)C(=O)O | 40.1 µM | 19.1
C=CC(C)(O)/C=C/C=C(\C)C(CC1OC1(C)C)OC(=O)/C(C)=C\C (stereo unspecified) | > 100 µM | –
O=S(=O)(O)c1ccc(-c2nnc(-c3ccccn3)nc2-c2ccc(S(=O)(=O)O)o2)o1 | > 100 µM | –
CSCCC(N)P(C)(=O)O (stereo unspecified) | > 100 µM | –
Oc1c2c(c3c4c1N=CC=4CCN=3)-c1c(Br)cc(Br)cc1CCN2 | 2.89 µM | –

SMILES | TGI | GI50 [µM]
CCCCCC[C@H]1CC(=O)C2CCCC[C@@]23CC[C@H](CCl)N13 (stereo partly specified) (tested in a mixture with another compound) | > 100 µM | –
CC1CCC(O)(C(C)(C(=O)O)c2ccccc2)CC1 (stereo unspecified) | > 100 µM | –
C=C(C)C1CC2(C)C(C)CC(OC(=O)/C(C)=C\C)CC2C(OC(=O)/C(C)=C\C)C1O (stereo unspecified) | > 100 µM | –
CN(C)CCOc1ccc(/C(=C(/CCCl)c2ccccc2)c2ccccc2)cc1 | 5.06 µM and 30.4 µM | 1.72
O=C1c2ccccc2C(=O)c2c(NCCNCCO)ccc(O)c21 | 11.1 µM | –
Cc1cnc(/C=N\NC(N)=S)c2cccc(N)c12 | > 100 µM | 4.77
CN1C(=O)N/C(=C\c2ccc(S(=O)(=O)N/N=C\C(O)C(O)C(O)CO)cc2)C1=O (stereo unspecified) | > 100 µM | –
Cn1nnnc1N/N=C/c1ccccc1 | > 10 µM | –
Cn1cc(-c2cnc(-c3cn(C)c4ccccc34)cn2)c2ccccc21 | > 100 µM | –
O=C(O)Cc1cccc2c1Oc1ccccc1S2 | > 100 µM | –
O=C(CSC(c1ccccc1)c1ccccc1)N/N=C/c1cccc(Cl)c1 | 41.1 µM | 20.4
O=P1(c2ccccc2)c2ccccc2CCc2ccccc21 | > 100 µM | –
O=C(O)NCc1ccccc1 (tested in a mixture with another compound) | > 100 µM | –
COc1ccc(C(=O)C(C(=O)C(=O)Nc2ccc(Cl)c(Cl)c2)c2ccc(OC)cc2)cc1 (stereo unspecified) | > 100 µM | –
O=c1ssc(Cl)c1Nc1c(Cl)ssc1=O | 38.9 µM | –
CC(=O)Nc1sc([N+](=O)[O-])cc1S(=O)(=O)c1ccc(Cl)cc1 | > 100 µM | –
O=C(O)CCC(=O)c1ccc2ccc3cccc4ccc1c2c34 | > 100 µM | –
CCOC(=O)c1c2c(n(Cc3ccccc3)c1C)-c1ccccc1C(=O)C2=O | 35.7 µM | 17
CC(=O)c1cccc(NC(=O)C(=O)C(C2OC(=O)c3ccccc32)[N+](=O)[O-])c1 (stereo unspecified) | > 100 µM | –
Cc1noc(C)c1-c1cc(O)cc(C(O)c2ccccc2)c1 (stereo unspecified) | > 100 µM | 8.41
O=C1/C(=C/c2ccc(Cl)cc2)N=C(c2ccccc2)N1c1nc2ccccc2s1 | > 100 µM | –
CC(C)(C)CC(C)(C)c1cc2c(O)c(c1)Cc1cc(C(C)(C)CC(C)(C)C)cc(c1O)Cc1cc(C(C)(C)CC(C)(C)C)cc(c1O)Cc1cc(C(C)(C)CC(C)(C)C)cc(c1O)Cc1cc(C(C)(C)CC(C)(C)C)cc(c1O)Cc1cc(C(C)(C)CC(C)(C)C)cc(c1O)C2 | > 100 µM | –
